Structures can show the parent of a compound that is named as a salt. ± gives the standard deviation of the averaged measurements. In all, about 2,000 compounds were measured (“relative cell viability vs DMSO, compound alone”: median about 1.1, lowest 2% from about 0.29 on). Some of the results follow.
Each molecule was assayed on TE10 (assay: relative cell viability vs DMSO, compound alone (fraction); TE10 is an esophageal squamous carcinoma line; higher = less cytotoxic). Conditions: 2 µM; 48 h.
Procedure: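 TE10 ESCC cells (1,000/well, 384-well plates) were treated with Selleck bioactive library compounds at 2 uM alone for 48 h. Viability was read by CellTiter-Glo and expressed relative to DMSO wells. Two technical replicates (A, B).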

Row | SMILES | relative cell viability
1 | C=CCN1CC[C@]23c4c5ccc(O)c4O[C@H]2C(=O)CC[C@@]3(O)[C@H]1C5 [Naloxone HCl Dihydrate] | 1.043 ± 0.0076
2 | C[C@@H]1CC[C@@]2(OC1)O[C@H]1C[C@H]3[C@@H]4CC=C5C[C@@H](O[C@@H]6O[C@H](CO)[C@@H](O[C@@H]7O[C@@H](C)[C@H](O)[C@@H](O)[C@H]7O)[C@H](O)[C@H]6O[C@@H]6O[C@@H](C)[C@H](O)[C@@H](O)[C@H]6O)CC[C@]5(C)[C@H]4CC[C@]3(C)[C@H]1[C@@H]2C [Dioscin] | 0.189 ± 0.051
3 | Cc1cccc(Cc2c[nH]cn2)c1C [Detomidine HCl] | 1.02 ± 0.025
4 | N#CC(C#N)=Cc1ccc(O)c(O)c1 | 1.11 ± 0.1
5 | Cc1cccc(C)c1NC(=O)CN1CCCC1=O [Nefiracetam] | 1.0421 ± 0.00054
6 | CN1CCCCC1Cn1cc(C(=O)c2cc([N+](=O)[O-])ccc2I)c2ccccc21 (configuration not stated) | 1.02 ± 0.024
7 | O=c1ccc2cc(O[C@@H]3O[C@H](CO)[C@@H](O)[C@H](O)[C@H]3O)c(O)cc2o1 [Esculin] | 1.12 ± 0.026
8 | c1ccc2c(c1)Nc1ccccc1S2 [Phenothiazine] | 1.14 ± 0.048
9 | O=C1C=CC[C@@H]2[C@H]3CCCN4CCC[C@@H](CN12)[C@@H]34 [Sophocarpine] | 0.978 ± 0.059
10 | CC(=O)O[C@H]1C[C@@H]2CC[C@@H]3[C@H](CC[C@@]4(C)[C@H]3C[C@H]([N+]3(C)CCCCC3)[C@@H]4OC(C)=O)[C@@]2(C)C[C@@H]1[N+]1(C)CCCCC1 [Pancuronium dibromide] | 1.08 ± 0.046
11 | O=C(NCC1CCOCC1)c1cnc(Nc2ccc(Cl)cc2Cl)nc1C(F)(F)F | 1.123 ± 0.0085
12 | C[C@]12CC[C@H](O)CC1=CC[C@@H]1[C@@H]2CC[C@]2(C)C(=O)CC[C@@H]12 [Dehydroepiandrosterone (DHEA)] | 1.06 ± 0.05
13 | c1ccc([C@@H]2C[C@H]2NC2CCNCC2)cc1 | 0.918 ± 0.14
14 | CC[C@H](C)[C@@H]([C@@H](CC(=O)N1CCC[C@H]1[C@H](OC)[C@@H](C)C(=O)N[C@H](C)[C@@H](O)c1ccccc1)OC)N(C)C(=O)[C@@H](NC(=O)[C@@H](NC)C(C)C)C(C)C [Monomethyl auristatin E (MMAE)] | 0.7713 ± 0.0035
15 | CC(C)OC(=O)[C@H](C)N[P@](=O)(CO[C@H](C)Cn1cnc2c(N)ncnc21)Oc1ccccc1 [Tenofovir Alafenamide (GS-7340)] | 1.11 ± 0.0036
16 | O=[N+]([O-])c1ncc[nH]1 [Azomycin] | 1.005 ± 0.0085
17 | O=c1cccc2n1C[C@@H]1CNC[C@H]2C1 [Cytisine] | 1.022 ± 0.0062
18 | CCOC(=O)c1cncn1[C@H](C)c1ccccc1 [Etomidate] | 1.174 ± 0.0053
19 | CCN1CCN(C(=O)Cc2ccc(Nc3ncc(F)c(Nc4ccc(C(=O)Nc5ccccc5Cl)cc4)n3)cc2)CC1 [Aurora A Inhibitor I] | 0.7095 ± 0.0065
20 | CN1CCc2cc3c(cc2C1C1OC(=O)c2c1ccc1c2OCO1)OCO3 (single isomer, unassigned; (+)) [(+)-Bicuculline] | 1.12 ± 0.039
21 | CC(O)(CS(=O)(=O)c1ccc(F)cc1)C(=O)Nc1ccc(C#N)c(C(F)(F)F)c1 (configuration not stated) [Bicalutamide] | 1.291 ± 0.011
22 | O=C(O)c1nn(Cc2ccc(Cl)cc2Cl)c2ccccc12 [Lonidamine] | 1.179 ± 0.00061
23 | Cc1cc(C(C#N)c2ccc(Cl)cc2)c(Cl)cc1NC(=O)c1cc(I)cc(I)c1O (configuration not stated) [Closantel] | 1.12 ± 0.019
24 | CC(C)(C)c1cc(C=C(C#N)C#N)cc(C(C)(C)C)c1O [Tyrphostin 9] | 0.323 ± 0.024

Row | SMILES | relative cell viability
25 | CN(C)Cc1c[nH]c2ccccc12 [Gramine] | 1.15 ± 0.025
26 | O=C(O)CCCc1ccc(N(CCCl)CCCl)cc1 [Chloroambucil] | 1.14 ± 0.012
27 | CC[C@@H](C(N)=O)N1CCCC1=O [Levetiracetam] | 1.189 ± 0.0022
28 | COc1ccc(C(=O)N2CCCC2=O)cc1 [Aniracetam] | 1.19 ± 0.093
29 | O=C(O[C@H]1C[C@H]2CC[C@@H](C1)[N+]21CCCC1)C(O)(c1ccccc1)c1ccccc1 [Trospium chloride] | 1.04 ± 0.13
30 | COc1cc([C@@H]2c3cc4c(cc3[C@H](O)[C@H]3COC(=O)[C@@H]23)OCO4)cc(OC)c1OC [Picropodophyllin (PPP)] | 0.985 ± 0.093
31 | CN1CCC(c2c[nH]c3ccc(O)cc23)CC1 | 1.16 ± 0.025
32 | NC(=O)CN1CC(O)CC1=O (configuration not stated) [Oxiracetam] | 1.15 ± 0.024
33 | CCNC(=O)C[C@@H]1N=C(c2ccc(Cl)cc2)c2cc(OC)ccc2-n2c(C)nnc21 | 0.83653 ± 0.00018
34 | CC(C)=CCC[C@]1(C)C=Cc2c(O)c3c(c(CC=C(C)C)c2O1)O[C@]12C(=C[C@@H]4C[C@H]1C(C)(C)O[C@@]2(C/C=C(/C)C(=O)O)C4=O)C3=O [Gambogic Acid] | 0.0673 ± 0.0049
35 | CN1c2ccccc2C(NCCCCCCC(=O)O)c2ccc(Cl)cc2S1(=O)=O (configuration not stated) [Tianeptine sodium] | 1.31 ± 0.099
36 | C[N+](C)(C)CCCCCCCCCC[N+](C)(C)C [Decamethonium Bromide] | 0.972 ± 0.035
37 | O=C(O)CNC(=O)c1c(O)c2ccccc2n(Cc2ccccc2)c1=O | 1.09 ± 0.038
38 | COc1cc(-n2c(=S)[nH]c3ccccc3c2=O)c(Cl)cc1Cl [Mdivi-1] | 1.11 ± 0.081
39 | CCCN1C[C@H](CSC)C[C@@H]2c3cccc4[nH]cc(c34)C[C@H]21 [Pergolide mesylate] | 1.06 ± 0.058
40 | CC(=O)Nc1ccc(Cc2ccc(NC(C)=O)cc2)cc1 | 1.1 ± 0.026
41 | CC1=C(O)C(=O)C=C2C1=CC=C1[C@@]2(C)CC[C@@]2(C)[C@@H]3C[C@](C)(C(=O)O)CC[C@]3(C)CC[C@]12C [Celastrol] | 0.306 ± 0.0087
42 | C[C@H]1CCC/C=C/[C@@H]2C[C@H](O)C[C@H]2[C@H](O)/C=C/C(=O)O1 [Brefeldin A] | 0.2497 ± 0.0017
43 | Cc1cc(O)ccc1Cl [Chlorocresol] | 1.14 ± 0.047
44 | c1cc2c(cc1[C@H]1OC[C@H]3[C@@H]1CO[C@@H]3c1ccc3c(c1)OCO3)OCO2 [Sesamin] | 1.09 ± 0.023
45 | NCCc1ccc(S(=O)(=O)F)cc1 | 1.15 ± 0.012
46 | Fc1cc(F)c2c(c1)[C@H]1C=CC[C@H]1C(c1cccnc1)N2 (some centres not stated) [Golgicide A] | 0.9811 ± 0.0014
47 | CN1[C@@H]2CC[C@H]1C[C@@H](OC(=O)[C@H](CO)c1ccccc1)C2 [Hyoscyamine] | 1.13 ± 0.017

Source: the supplement of paper PMC10670038
